Source: article PMC11550485 (Science (New York, N.Y.), 2023)

Target: T1, GST-TRIM11 (human, UniProt Q96F44 1-468)
T1 sequence (looked up): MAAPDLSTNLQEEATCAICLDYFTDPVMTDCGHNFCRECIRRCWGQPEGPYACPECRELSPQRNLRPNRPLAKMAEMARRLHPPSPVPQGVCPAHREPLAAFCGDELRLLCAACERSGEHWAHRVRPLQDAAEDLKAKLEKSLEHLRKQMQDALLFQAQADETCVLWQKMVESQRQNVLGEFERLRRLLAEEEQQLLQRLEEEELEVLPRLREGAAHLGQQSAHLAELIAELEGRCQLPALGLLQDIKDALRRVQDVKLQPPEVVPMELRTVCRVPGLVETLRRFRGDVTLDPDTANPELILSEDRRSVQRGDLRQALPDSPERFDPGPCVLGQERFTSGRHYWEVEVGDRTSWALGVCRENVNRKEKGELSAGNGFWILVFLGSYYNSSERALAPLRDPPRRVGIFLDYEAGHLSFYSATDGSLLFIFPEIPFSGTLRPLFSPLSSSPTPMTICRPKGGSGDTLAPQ
Experiment: pull-down

B1: 6×His-GFP-tau P301L (natural protein)
chain: not shown
Question: Does B1 bind?
Answer: binds
